“And” between values parts separate entries of the source, which are not always exact repeats. Equal entries are not always repeated. For part of these data: The hits were mostly taken out for another list; the other results follow. Results filed as inconclusive are left out. Some structures have more than one record in an assay (separate samples or runs), and their calls can disagree. The list shows a part of the results, in another mix than the full data. The source made the active and inactive calls. Calls follow the shape of the dose curve; as a rule, active = well fitted curve in the direction sought with a large enough effect in the repeat runs; inconclusive = weak or mixed curves; inactive = no such curve, though single readings can be large; an effect the other way counts as inactive or inconclusive.
Columns and labels:
[1] = qHTS assay for identifying genotoxic compounds that show differential cytotoxicity against isogenic chicken DT40 cell lines with known DNA damage response pathways - wild type cell line (AID 743012); also: nearly all actives have a fitted effect of over 60% in size; also: potency is read from the fitted curve at half-maximal effect
Method in brief: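 Wild type DT40, 300 cells/well, ~0.5 h settle at 37 C/5% CO2; compounds in DMSO added by pintool; 40 h at 37 C/5% CO2; CellTiter-Glo, 30 min RT; luminescence.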

[2] = qHTS assay for identifying genotoxic compounds that show differential cytotoxicity against isogenic chicken DT40 cell lines with known DNA damage response pathways - Rev3 mutant cell line (AID 743014); also: nearly all actives have a fitted effect of over 55% in size; also: potency is read from the fitted curve at half-maximal effect
[3] = qHTS assay for identifying genotoxic compounds that show differential cytotoxicity against isogenic chicken DT40 cell lines with known DNA damage response pathways - Rad54/Ku70 mutant cell line (AID 743015); also: nearly all actives have a fitted effect of over 60% in size; also: potency is read from the fitted curve at half-maximal effect
[4] = molecular target: Voltage-gated inwardly rectifying potassium channel KCNH2 (Homo sapiens) (UniProt Q12809); assay: Human Ether-a-go-go-Related Gene (hERG) channel small molecule antagonists: fluorescence cell-based qHTS assay (AID 1671200); also: nearly all actives have a fitted effect of over 50% in size; also: potency is read from the fitted curve at half-maximal effect
Sequence of UniProt Q12809 (Q12809 whole entry, looked up): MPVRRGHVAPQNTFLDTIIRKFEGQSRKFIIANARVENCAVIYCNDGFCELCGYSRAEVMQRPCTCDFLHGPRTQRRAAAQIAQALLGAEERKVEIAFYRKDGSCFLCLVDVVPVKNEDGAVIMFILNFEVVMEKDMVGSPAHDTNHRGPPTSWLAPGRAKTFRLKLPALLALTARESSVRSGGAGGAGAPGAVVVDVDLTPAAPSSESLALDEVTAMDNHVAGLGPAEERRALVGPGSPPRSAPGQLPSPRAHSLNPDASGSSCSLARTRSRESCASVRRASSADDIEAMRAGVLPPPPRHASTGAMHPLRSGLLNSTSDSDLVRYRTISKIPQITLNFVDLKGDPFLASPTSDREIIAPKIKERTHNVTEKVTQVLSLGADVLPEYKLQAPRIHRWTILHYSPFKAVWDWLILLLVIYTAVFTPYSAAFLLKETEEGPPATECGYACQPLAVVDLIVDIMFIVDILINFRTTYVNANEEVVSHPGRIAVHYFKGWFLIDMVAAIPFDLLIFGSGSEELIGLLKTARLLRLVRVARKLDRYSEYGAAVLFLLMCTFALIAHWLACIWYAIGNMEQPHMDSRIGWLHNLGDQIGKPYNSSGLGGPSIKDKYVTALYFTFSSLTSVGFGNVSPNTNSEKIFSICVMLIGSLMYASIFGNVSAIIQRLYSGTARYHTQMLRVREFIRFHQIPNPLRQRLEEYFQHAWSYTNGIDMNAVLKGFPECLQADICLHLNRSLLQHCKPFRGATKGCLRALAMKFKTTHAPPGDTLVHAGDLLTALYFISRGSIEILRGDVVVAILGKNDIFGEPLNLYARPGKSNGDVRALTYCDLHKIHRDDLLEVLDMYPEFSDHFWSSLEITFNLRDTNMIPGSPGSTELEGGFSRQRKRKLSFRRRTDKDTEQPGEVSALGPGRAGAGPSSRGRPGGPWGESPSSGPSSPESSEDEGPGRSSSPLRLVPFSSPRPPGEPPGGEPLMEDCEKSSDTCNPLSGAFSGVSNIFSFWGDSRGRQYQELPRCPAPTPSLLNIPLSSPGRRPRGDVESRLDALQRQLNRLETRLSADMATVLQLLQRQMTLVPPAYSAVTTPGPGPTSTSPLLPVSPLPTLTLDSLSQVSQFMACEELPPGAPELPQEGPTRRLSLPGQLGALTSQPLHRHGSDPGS
Method in brief: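 Thallium flux as potassium surrogate: FluxOR II dye loaded 1 h at room temperature into hERG-expressing U2OS cells, then stimulus buffer added after 10 min. Kinetic 480 nm excitation/540 nm emission read, 2 min.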

[5] = molecular target: Cytochrome P450 2D6 (Homo sapiens) (UniProt P10635); assay: Cytochrome P450 Family 2 Subfamily D Member 6 (CYP2D6) small molecule antagonists: luciferase reporter qHTS assay (AID 1671196); also: nearly all actives have a fitted effect of over 50% in size; also: potency is read from the fitted curve at half-maximal effect
Sequence of UniProt P10635 (P10635 whole entry, looked up): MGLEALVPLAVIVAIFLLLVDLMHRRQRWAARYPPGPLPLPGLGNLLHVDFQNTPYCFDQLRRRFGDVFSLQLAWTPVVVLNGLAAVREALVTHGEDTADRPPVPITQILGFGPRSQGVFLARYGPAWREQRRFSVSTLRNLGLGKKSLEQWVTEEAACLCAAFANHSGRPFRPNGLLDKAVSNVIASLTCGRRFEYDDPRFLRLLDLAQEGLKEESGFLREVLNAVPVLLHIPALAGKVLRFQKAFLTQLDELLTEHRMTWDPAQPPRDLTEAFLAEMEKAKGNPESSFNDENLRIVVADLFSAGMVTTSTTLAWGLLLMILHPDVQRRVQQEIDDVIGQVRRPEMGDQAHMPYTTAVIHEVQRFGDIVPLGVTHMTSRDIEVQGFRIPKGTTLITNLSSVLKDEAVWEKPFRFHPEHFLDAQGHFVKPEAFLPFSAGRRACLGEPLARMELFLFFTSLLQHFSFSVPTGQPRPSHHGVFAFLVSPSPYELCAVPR
Method in brief: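 Read-out is luminescence from luciferin formed by CYP2D6 turnover of a proluciferin substrate, recorded as relative luminescence units. Reactions ran 1 h at room temperature after NADPH regeneration solution was added.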

[6] = molecular target: Nuclear receptor subfamily 1 group I member 2 (Homo sapiens) (UniProt O75469); assay: CYP3A4 induction through human pregnane X receptor (PXR) by small molecules, qHTS assay (AID 1346984); details: DPX-2 HepG2 PXR, CYP3A4-luciferin luminescence, 24 h; at 46.1 µM (top of the series) unless noted; also: nearly all actives have a fitted effect of over 40% in size
Method in brief: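 Luminescence readout: luciferase signal after One-Glo (30 min, room temperature), following 3 h at 37C with 3uM final Luciferin-IPA P450 substrate. Cells were DPX-2 (HepG2, PXR/CYP3A4-luc co-transfected) dosed for 24 h.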

[7] = molecular target: Cytochrome P450 2C19 (Homo sapiens) (UniProt P33261); assay: Cytochrome P450 Family 2 Subfamily C Member 19 (CYP2C19) small molecule antagonists: luciferase reporter qHTS assay (AID 1671197); also: nearly all actives have a fitted effect of over 65% in size; also: potency is read from the fitted curve at half-maximal effect
Sequence of UniProt P33261 (P33261 whole entry, looked up): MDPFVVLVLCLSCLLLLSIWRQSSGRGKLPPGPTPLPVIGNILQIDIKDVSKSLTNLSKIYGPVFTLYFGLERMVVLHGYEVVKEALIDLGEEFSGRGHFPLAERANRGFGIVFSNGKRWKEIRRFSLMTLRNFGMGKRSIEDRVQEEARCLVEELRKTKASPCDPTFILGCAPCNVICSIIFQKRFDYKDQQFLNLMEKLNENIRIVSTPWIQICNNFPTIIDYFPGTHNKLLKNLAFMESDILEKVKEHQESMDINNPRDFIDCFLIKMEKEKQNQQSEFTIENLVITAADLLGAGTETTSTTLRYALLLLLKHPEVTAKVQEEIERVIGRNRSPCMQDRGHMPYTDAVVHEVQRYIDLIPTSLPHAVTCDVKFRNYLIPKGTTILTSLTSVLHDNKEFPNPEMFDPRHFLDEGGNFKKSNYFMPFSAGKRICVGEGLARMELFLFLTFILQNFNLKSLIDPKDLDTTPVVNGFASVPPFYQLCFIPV
Method in brief: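 Luminescent readout of CYP2C19 activity: luciferin product detected 20 min after adding detection reagent. Before that, compound and enzyme-substrate mix preincubated 10 min at room temperature; NADPH-regenerating system started a 1 h, 37C reaction. Ketoconazole as positive control.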

[8] = molecular target: Cytochrome P450 2C9 (Homo sapiens) (UniProt P11712); assay: Cytochrome P450 Family 2 Subfamily C Member 9 (CYP2C9) small molecule antagonists: luciferase reporter qHTS assay (AID 1671198); also: nearly all actives have a fitted effect of over 50% in size; also: potency is read from the fitted curve at half-maximal effect
Sequence of UniProt P11712 (P11712 whole entry, looked up): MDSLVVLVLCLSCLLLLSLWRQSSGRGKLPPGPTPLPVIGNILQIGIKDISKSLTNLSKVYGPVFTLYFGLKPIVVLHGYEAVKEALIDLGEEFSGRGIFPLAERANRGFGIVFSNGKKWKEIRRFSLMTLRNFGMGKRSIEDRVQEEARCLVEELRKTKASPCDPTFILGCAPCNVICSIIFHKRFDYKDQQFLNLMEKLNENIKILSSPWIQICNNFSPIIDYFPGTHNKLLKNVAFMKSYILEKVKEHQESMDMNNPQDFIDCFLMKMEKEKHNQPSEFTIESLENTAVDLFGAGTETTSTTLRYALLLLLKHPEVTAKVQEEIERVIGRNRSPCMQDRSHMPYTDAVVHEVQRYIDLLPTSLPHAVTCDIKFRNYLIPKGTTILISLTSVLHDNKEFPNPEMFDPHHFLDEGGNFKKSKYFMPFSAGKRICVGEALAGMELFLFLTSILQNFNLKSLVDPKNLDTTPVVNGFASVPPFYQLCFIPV
Method in brief: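 P450-Glo proluciferin substrate with CYP2C9 enzyme; 10 min RT preincubation, then NADPH regeneration 1 h at 37C; luciferin detection reagent 20 min RT, luminescence in relative luminescence units.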

[9] = molecular target: Cytochrome P450 1A2 (Homo sapiens) (UniProt P05177); assay: Cytochrome P450 Family 1 Subfamily A Member 2 (CYP1A2) small molecule antagonists: luciferase reporter qHTS assay (AID 1671199); details: P450-Glo CYP1A2 enzyme, luciferin luminescence, 1 h; at 115 µM (top of the series) unless noted; also: nearly all actives have a fitted effect of over 50% in size
Sequence of UniProt P05177 (P05177 whole entry, looked up): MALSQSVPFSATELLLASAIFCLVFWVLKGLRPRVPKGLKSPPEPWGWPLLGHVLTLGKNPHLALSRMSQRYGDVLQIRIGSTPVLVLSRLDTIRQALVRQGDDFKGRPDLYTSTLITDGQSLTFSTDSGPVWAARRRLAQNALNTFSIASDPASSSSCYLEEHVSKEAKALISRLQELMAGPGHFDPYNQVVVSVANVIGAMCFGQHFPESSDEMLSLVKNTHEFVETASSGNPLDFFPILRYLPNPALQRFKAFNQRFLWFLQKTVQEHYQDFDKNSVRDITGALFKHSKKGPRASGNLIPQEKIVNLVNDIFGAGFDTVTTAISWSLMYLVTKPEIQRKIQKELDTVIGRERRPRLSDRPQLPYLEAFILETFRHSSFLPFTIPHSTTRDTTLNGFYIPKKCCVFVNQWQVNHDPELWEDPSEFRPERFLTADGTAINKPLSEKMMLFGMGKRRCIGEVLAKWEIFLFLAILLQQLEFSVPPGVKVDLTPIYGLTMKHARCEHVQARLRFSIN
Method in brief: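 P450-Glo CYP1A2, 1536-well qHTS: enzyme/proluciferin substrate + cpd (DMSO), 10 min RT; NADPH regen, 1 h RT; detection reagent, 20 min; luminescence, RLU.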

[10] = molecular target: Cytochrome P450 3A4 (Homo sapiens) (UniProt P08684); assay: Cytochrome P450 Family 3 Subfamily A Member 4 (CYP3A4) small molecule antagonists: luciferase reporter qHTS assay (AID 1671201); also: nearly all actives have a fitted effect of over 50% in size; also: potency is read from the fitted curve at half-maximal effect
Sequence of UniProt P08684 (P08684 whole entry, looked up): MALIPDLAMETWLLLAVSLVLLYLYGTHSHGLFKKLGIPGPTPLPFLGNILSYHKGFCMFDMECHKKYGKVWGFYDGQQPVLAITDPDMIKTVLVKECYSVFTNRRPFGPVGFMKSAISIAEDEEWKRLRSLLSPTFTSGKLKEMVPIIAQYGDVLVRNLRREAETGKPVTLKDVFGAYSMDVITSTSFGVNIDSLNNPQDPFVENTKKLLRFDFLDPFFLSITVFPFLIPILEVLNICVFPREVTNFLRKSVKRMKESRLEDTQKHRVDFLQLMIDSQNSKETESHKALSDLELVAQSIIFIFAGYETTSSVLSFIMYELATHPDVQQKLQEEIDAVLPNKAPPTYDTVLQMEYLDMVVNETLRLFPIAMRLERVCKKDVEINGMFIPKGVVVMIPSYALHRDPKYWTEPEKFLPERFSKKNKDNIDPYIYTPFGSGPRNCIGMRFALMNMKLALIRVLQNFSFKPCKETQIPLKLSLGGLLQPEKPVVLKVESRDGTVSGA
Method in brief: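 Recombinant human CYP3A4 converts a proluciferin substrate to luciferin over 1 h at room temperature after NADPH regeneration solution is added (compound preincubated 10 min); detection reagent stops reaction, luminescence read 20 min later as relative units.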
% is scaled to controls: 0 for no effect and ±100 for the full control effect.

CCC(C)(CN(C)C)OC(=O)c1ccccc1 (stereo not given)
inactive: Potency [1] | Potency [2] | Potency [3] | Potency [4]

COC(=O)C1=C(C)NC(C)=C(C(=O)OC)C1c1ccccc1[N+](=O)[O-]
inactive: Potency [5] | Potency [4]
active: Potency [1] 21.1 µM and 19.4 µM | Potency [2] 13.7 µM | Potency [3] 21.7 µM

CCn1cc(C(=O)O)c(=O)c2cc(F)c(N3CCN(C)CC3)cc21
active: Potency [1] 11.9 µM | Potency [3] 23.7 µM
inactive: activation [6] -5.08% | Potency [5] | activity change, negative = inhibition [7] 39.8% [at 23.6 µM] | Potency [8] | activity change, negative = inhibition [9] 12% [at 23.6 µM] | Potency [10]

C[C@@H]1C[C@H]2[C@@H]3C[C@H](F)C4=CC(=O)C=C[C@]4(C)[C@@]3(F)[C@@H](O)C[C@]2(C)[C@@]1(O)C(=O)CO
inactive: Potency [1] | Potency [4]

Cc1cc(/C=C/c2ccc3cc(N(C)C)ccc3[n+]2C)c(C)n1-c1ccccc1
active: Potency [1] 0.254 µM | Potency [2] 0.569 µM | Potency [3] 0.285 µM
inactive: activation [6] -11.6% [at 20.6 µM]

CO[Si](C)(C)OC
inactive: Potency [1] | Potency [2] | Potency [3] | Potency [5] | Potency [7] | Potency [8] | activity change, negative = inhibition [9] -29.3% | Potency [4]
active: Potency [10] 39.9 µM

NC(=O)NNc1ccccc1
inactive: Potency [1] | Potency [2] | Potency [3] | Potency [4]

CCCCC(=O)OCC(=O)[C@H]1[C@H](C)C[C@H]2[C@@H]3C[C@H](F)C4=CC(=O)C=C[C@]4(C)[C@@]3(F)[C@@H](O)C[C@@]21C
inactive: activity change, negative = inhibition [9] -16.5% [at 53 µM]
active: Potency [1] 26.6 µM | Potency [2] 26.6 µM | Potency [3] 26.6 µM | Potency [7] 24.5 µM | Potency [8] 8.71 µM

CS(=O)(=O)c1ccc([C@@H](C[C@H]2CCC(=O)C2)C(=O)Nc2cnccn2)cc1Cl
active: Potency [4] 11 µM
inactive: Potency [1] | Potency [2] | Potency [3] | Potency [5] | Potency [7] | activity change, negative = inhibition [9] -10.3%

CCC[C@@H]1C[C@@H](C(=O)N[C@@H]([C@H]2O[C@H](SC)[C@H](O)[C@@H](O)[C@H]2O)[C@H](C)Cl)N(C)C1
inactive: Potency [1] | Potency [2] | Potency [3]

COCC(=O)Nc1cc(Sc2ccccc2)ccc1N=C(NC(=O)OC)NC(=O)OC
inactive: activation [6] -4.42%
active: Potency [1] 21.1 µM | Potency [2] 26.6 µM | Potency [3] 26.6 µM

NC(N)=NCCN1CCCCCCC1
inactive: Potency [1] | Potency [2] | Potency [3] | activity change, negative = inhibition [4] -2.31% [at 0.29 µM]

Nc1nc2ccc(OC(F)(F)F)cc2s1
active: Potency [7] 38.9 µM
inactive: Potency [1] | Potency [2] | Potency [3] | Potency [5] | Potency [4] | Potency [10]

CC(C)CC(=O)O
active: Potency [5] 69.4 µM | Potency [7] 69.4 µM
inactive: Potency [1] | Potency [2] | Potency [3] | Potency [8] | activity change, negative = inhibition [9] -18.3% | Potency [4] | Potency [10]

CC(C)(CO)[C@@H](O)C(=O)NCCC(=O)NCCSSCCNC(=O)CCNC(=O)[C@H](O)C(C)(C)CO
inactive: Potency [1] | Potency [2] | Potency [3] | activation [6] -2.15%

Cc1cccc(N)n1
inactive: Potency [1] | Potency [3] | Potency [5] | Potency [7] | activity change, negative = inhibition [9] -13.9% | Potency [4] | Potency [10]

NCCC[C@H](N)C(=O)O
inactive: Potency [1] | Potency [2] | Potency [3]

COc1cc2c(cc1OC)C(=O)C(CC1CCN(Cc3ccccc3)CC1)C2 (stereo not given)
active: Potency [1] 3.76 µM | Potency [2] 0.531 µM | Potency [3] 4.22 µM
inactive: Potency [7] | Potency [8] | activity change, negative = inhibition [9] 1.04% [at 53 µM] | Potency [10]

O=C1OCCN1/N=C/c1ccc([N+](=O)[O-])o1
active: Potency [2] 11.9 µM | Potency [3] 23.7 µM
inactive: activation [6] -13.4% | Potency [5] | Potency [8] | activity change, negative = inhibition [9] 0.999% [at 53 µM] | Potency [4] | Potency [10]
